Test results published in patent US12121518B2, “PARP-1 and methods of use thereof” (The Board of Supervisors of Louisiana State University and …, priority 2017, dated 2024).

Assays:
MDSCs = experiment: T-cell suppression assay with MDSCs isolated from MC-38 tumors of treated mice (ex vivo); assay type: cell-based, mouse; conditions: MDSC/T cell ratio 1:8, no drug in co-culture
Text: Without wishing to be bound by theory, PARP-1 may influence the function rather than the phenotype of MDSCs. […] As expected, MDSCs isolated from tumors of WT mice were effective at suppressing T-cell proliferation upon stimulation (FIG. 35G).

advanced colon cancer = conditions: monotherapy or in combination with irinotecan; cited from earlier work
CD4+ T-enriched cells = conditions: cited from earlier work

## O=C(c1cc(Cc2n[nH]c(=O)c3ccccc23)ccc1F)N1CCN(C(=O)C2CC2)CC1 [olaparib]
MDSCs; mice treated with 0.2 mg/kg
  capacity of tumor MDSCs to suppress T-cell proliferation: reduced capacity to suppress T-cell proliferation
MDSCs; mice treated with moderate dose 5 mg/kg
  capacity of tumor MDSCs to suppress T-cell proliferation: more pronounced effect
Advanced colon cancer
  clinical outcome: disappointing results
CD4+ T-enriched cells; higher concentration 5 μM
  percentage of CD25+/Foxp3+ Treg cells: almost doubled the percentage
CD4+ T-enriched cells; moderate concentration 1 μM
  CD25+/Foxp3+ Treg cell population: did not induce an increase
